# Test results: the supplement of paper PMC8291772
# ± gives the standard error. The list shows a part of the results.
# Target: terminal deoxynucleotidyl transferase (calf thymus) (UniProt P06526)
# Assay: TdT poly-dT extension signal (Cy3 hybridisation fluorescence, uncapped minus capped) (fluorescence a.u.); higher = more efficient initiation of TdT extension
# Conditions: initiator chemistry: L-DNA (mirror-image), free 5'-OH (3'-tethered via HEG linker)
# Protocol: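 All mono- to pentamer D-DNA or L-DNA initiators were made by forward (3'->5') photolithographic in situ synthesis on glass on a hexaethylene glycol linker, leaving a free 5'-OH. Each was made in uncapped and DMTr-dT-capped versions, about 11 replicates each. Arrays were extended with calf thymus TdT (0.2 U/uL), 100 uM dTTP and 0.25 mM CoCl2 for 120 min at 37 C, hybridised with an rA18-Cy3 probe and scanned at 532 nm. The value is the mean uncapped minus the mean capped signal. IDs read 5'->3'. L-DNA is mirror-image; D-DNA 5'-OH initiators were below LOD (no extension).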
# UniProt P06526, sequence (P06526 whole entry): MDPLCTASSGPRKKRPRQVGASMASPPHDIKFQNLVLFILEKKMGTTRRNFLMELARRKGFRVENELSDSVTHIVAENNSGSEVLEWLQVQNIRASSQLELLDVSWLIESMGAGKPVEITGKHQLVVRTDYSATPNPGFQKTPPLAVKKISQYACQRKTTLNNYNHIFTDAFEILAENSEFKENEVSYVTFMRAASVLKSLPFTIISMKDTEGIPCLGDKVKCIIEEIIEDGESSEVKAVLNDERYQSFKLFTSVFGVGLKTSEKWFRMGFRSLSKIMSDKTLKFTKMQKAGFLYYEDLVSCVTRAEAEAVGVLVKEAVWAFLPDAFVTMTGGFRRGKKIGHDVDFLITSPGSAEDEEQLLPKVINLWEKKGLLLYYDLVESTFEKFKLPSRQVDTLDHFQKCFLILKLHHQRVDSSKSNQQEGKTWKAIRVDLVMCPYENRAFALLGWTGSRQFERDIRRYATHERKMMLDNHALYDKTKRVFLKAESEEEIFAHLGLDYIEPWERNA
row,Sequence,TdT poly-dT extension signal
1,TTCCT,286 ± 28
2,CGCCC,60.2 ± 7.1
3,CGTT,58 ± 7.4
4,TGTCT,112 ± 8.9
5,GCGGC,73.3 ± 6.8
6,GCACT,74.3 ± 8.6
7,TCTA,181 ± 17
8,AGATT,71.6 ± 8.4
9,TCTCC,117 ± 8.4
10,ACGGA,65.6 ± 6.7
11,AGCAG,58.4 ± 5.4
12,GACTT,88.6 ± 7.5
13,CTGG,124 ± 17
14,CTAG,116 ± 12
15,GCTCA,73.4 ± 7.7
16,CCCAT,112 ± 9.1
17,CCGG,80.6 ± 5.2
18,GTCT,123 ± 12
19,TCATT,134 ± 15
20,TACGC,151 ± 16
21,CACTA,78.1 ± 6.3
22,GCCGA,98.2 ± 9.2
23,TATAA,200 ± 18
24,CTAGA,170 ± 11

row,Sequence,TdT poly-dT extension signal
1,GTGTG,108 ± 8.6
2,CTTG,132 ± 6.2
3,GAAGA,88 ± 8.5
4,ACCTC,58.7 ± 6.9
5,TGAAA,209 ± 11
6,ATGG,131 ± 12
7,CTCAT,130 ± 12
8,CAATT,68.1 ± 6.4
9,GGATC,67.1 ± 5.8
10,TGATT,168 ± 10
11,GTAA,143 ± 13
12,GGGCG,83.8 ± 6.6
13,ATGTA,118 ± 12
14,GAATT,89.7 ± 8
15,GGTGT,55.2 ± 5
16,GCACA,78.5 ± 4.8
17,TTAGG,444 ± 29
18,GCCGC,93.5 ± 6.3
19,CTGAA,147 ± 12
20,TAGT,121 ± 11
21,TCCCC,175 ± 17
22,AACT,79 ± 11
23,CCCT,93.8 ± 6.5
24,ACATG,69.4 ± 5.7

row,Sequence,TdT poly-dT extension signal
1,GCTTG,59.7 ± 8.3
2,TATTA,196 ± 11
3,GTGTT,100 ± 8.2
4,ACAAG,96.1 ± 7.5
5,CCGTC,48.6 ± 6.6
6,ACGC,55.8 ± 9.1
7,GCTGA,75.3 ± 5.4
8,GTTT,122 ± 11
9,ATTGG,180 ± 13
10,TGGGT,105 ± 9.8
11,AGTGA,57.2 ± 5.7
12,ATAG,163 ± 22
13,GAGCA,59 ± 5.4
14,AGCC,46.8 ± 7.6
15,GCCCG,83.6 ± 6.6
16,ACTCG,65.5 ± 6.4
17,GTTAG,158 ± 11
18,CACG,57.5 ± 7.7
19,TACTT,154 ± 10
20,TGACA,165 ± 8.2
21,TATGC,148 ± 11
22,ACTTG,74.5 ± 4.6
23,AGAAG,68.4 ± 6.8
24,GAGAG,60.9 ± 4.4

row,Sequence,TdT poly-dT extension signal
1,CATGT,61.4 ± 5.1
2,ATTCT,136 ± 8.1
3,TAACG,195 ± 11
4,ATTT,160 ± 15
5,CTGAG,130 ± 11
6,CTGAC,128 ± 9.9
7,TCTG,146 ± 9.6
8,AAGAG,61.4 ± 6.7
9,TCAGA,192 ± 8.6
10,GGGCA,50.3 ± 7.4
11,GTAGC,160 ± 11
12,CCTTT,53 ± 6.8
13,GAGCC,63.7 ± 6.2
14,ACCGG,103 ± 8.1
15,TTGCT,229 ± 24
16,ACGTA,54.2 ± 7.7
17,ATCA,174 ± 13
18,CTCCC,112 ± 10
19,AGGTA,30.3 ± 2.8
20,ACGCA,49.9 ± 5.1
21,ACTT,68.9 ± 6.1
22,AAACA,85.8 ± 6.2
23,TGAGG,138 ± 12
24,TGGCG,108 ± 11

row,Sequence,TdT poly-dT extension signal
1,TAGAG,129 ± 13
2,AAGAA,62 ± 6.3
3,GTTAC,130 ± 11
4,GAGTT,40.6 ± 5.8
5,CCTAT,92.3 ± 5.7
6,CCTCC,74.1 ± 8.8
7,CAAGA,81.3 ± 4.5
8,ACGTT,49.6 ± 7
9,GCTT,64.4 ± 4.5
10,CTCG,124 ± 17
11,CAACC,78.5 ± 6.7
12,CTAAG,215 ± 13
13,GGTAA,63.1 ± 7.8
14,TAGG,117 ± 11
15,TGCAA,135 ± 11
16,CCTAC,65.1 ± 9.5
17,ACTCT,59.7 ± 8.8
18,GTGC,88.4 ± 10
19,TAGCA,110 ± 6.3
20,CCGCG,87.7 ± 5.1
21,GATAA,105 ± 12
22,GTAGT,130 ± 11
23,AGTTA,36.8 ± 4.9
24,TTGTA,245 ± 16

row,Sequence,TdT poly-dT extension signal
1,GCAA,72.9 ± 6
2,TCAC,167 ± 17
3,ATGA,143 ± 10
4,CGCT,42.9 ± 7.5
5,GATGA,75.2 ± 7.2
6,TTCTA,312 ± 31
7,AGAT,74.9 ± 6
8,GCGCT,57.5 ± 4.6
9,ACCCT,51.4 ± 7.5
10,TCGCA,149 ± 9.5
11,GGTT,50.9 ± 5.2
12,TCTTG,143 ± 14
13,TCGAA,187 ± 8.6
14,CGACT,63.7 ± 5.4
15,AGGCG,46.6 ± 6.6
16,GTTCT,130 ± 18
17,CTGAT,127 ± 9.7
18,AGCGC,57.8 ± 6.1
19,CTAAC,201 ± 14
20,GTCGT,133 ± 4.9
21,GGTCA,40.5 ± 5.1
22,CCAGT,88.1 ± 7.4
23,AGCGG,74.6 ± 6.3
24,GTAC,144 ± 18

row,Sequence,TdT poly-dT extension signal
1,TGCGA,157 ± 7.9
2,CCATG,100 ± 8.1
3,ATCGC,174 ± 6.9
4,GCCAA,111 ± 10
5,GAACA,87.7 ± 5.5
6,GAATC,80.3 ± 5.6
7,AGCA,47.1 ± 6
8,GATCT,70.7 ± 5.6
9,TGAG,154 ± 13
10,TACGT,180 ± 15
11,CGCTG,56.2 ± 6
12,CTCTT,122 ± 10
13,CCAAG,120 ± 9.5
14,AAGTT,31.4 ± 4.1
15,CTGGT,116 ± 6.9
16,GCGTT,45.1 ± 5.2
17,GACAT,97.5 ± 6.6
18,GTATC,132 ± 12
19,AATTC,76.8 ± 8.4
20,ACTTT,70.7 ± 5.3
21,CCTGC,61.6 ± 5.2
22,GGAGT,69.5 ± 4.3
23,CAAT,75.7 ± 9.8
24,GGTTT,67.3 ± 7.5

row,Sequence,TdT poly-dT extension signal
1,CGTCT,42.8 ± 5.1
2,CTGCC,106 ± 12
3,GACA,97.2 ± 8.2
4,ACAC,94.6 ± 5.8
5,CCAT,96.1 ± 12
6,CAGCA,49.3 ± 3.8
7,CAAAA,111 ± 8.8
8,TTGAA,339 ± 42
9,TCGGT,125 ± 12
10,GATC,77.5 ± 6.2
11,AGTCA,40.6 ± 5.2
12,TTAAC,377 ± 27
13,AATCT,80.2 ± 13
14,CAGAA,73.9 ± 6.4
15,CTTCG,133 ± 16
16,CGATA,72.3 ± 7.8
17,AGAGG,78.9 ± 7
18,CAGAT,54.1 ± 7.5
19,CGTAA,65.8 ± 9.3
20,CCTAG,92.4 ± 6.2
21,TCTGT,144 ± 8.7
22,GCTTT,48.2 ± 6.4
23,AAGGG,52.9 ± 6.3
24,CTCGC,146 ± 15

row,Sequence,TdT poly-dT extension signal
1,TATG,169 ± 11
2,AGTTC,36.8 ± 6.5
3,AACGT,66.7 ± 5.7
4,ACTCA,79.4 ± 8.6
5,ATCAC,188 ± 16
6,GCCCC,74.3 ± 7.4
7,TAACT,155 ± 19
8,CCGC,75.7 ± 7.3
9,CCTCG,76.3 ± 5.5
10,TGCG,165 ± 17
11,TAGTA,91.6 ± 7.5
12,GGCTA,46.3 ± 4.8
13,ATCGA,206 ± 17
14,GTCAG,161 ± 18
15,ATACA,204 ± 18
16,ACCAA,101 ± 9
17,AGCCT,45.4 ± 5
18,TCCGG,280 ± 18
19,CTACA,148 ± 16
20,CGCA,54.4 ± 10
21,CTTGC,107 ± 7.2
22,AATCA,84.5 ± 5
